“And” between values parts separate entries of the source, which are not always exact repeats. Equal entries are not always repeated. Inconclusive results, whose numbers are uncertain, are shown with a selection of clear calls. For part of these data: Potencies beside an inconclusive call are fits to weak or partial responses and may not hold up. For part of these data: A note “side channel” means that the fit belongs to a control or component signal, not to the main read-out. The source made the active and inactive calls. Unless noted, calls come from the whole dose curve.
Key:
[1] = molecular target: Bile acid receptor (Homo sapiens) (UniProt Q96RI1); assay: qHTS assay for small molecule antagonists of farnesoid X receptor signaling (AID 588526); conditions: HEK293T FXR-UAS-bla, beta-lactamase ratio, antagonist mode; activity change, negative = inhibition: at 76.7 µM (top of the series); note: potency is the fitted concentration of half-maximal effect; for activity change, negative = inhibition: % is set by controls: 0 for no effect and ±100 for the full control effect
Method in brief: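 Antagonist mode: titrated compounds tested against chenodeoxycholic acid stimulation (normalized to 50 uM CDCA and DMSO) in GeneBLAzer HEK293T cells for 16 h. Beta-lactamase read by CCF4 fluorescence; IC50 from Hill fits.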

[2] = molecular target: Bile acid receptor (Homo sapiens) (UniProt Q96RI1); assay: qHTS assay for small molecule agonists of farnesoid X receptor signaling (AID 588527); conditions: HEK293T FXR-UAS-bla, beta-lactamase ratio, 16 h; activation: hits give high values;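 note: 0% = vehicle basal and 100% = reference agonist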
Method in brief: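 FXR-UAS-bla HEK293T, 10% dialyzed FBS; cpds up to 92 uM titration, 16 h 37 C; CCF4 dye 2 h RT; fluorescence. Normalized to chenodeoxycholic acid 100 uM (100%) and DMSO (0%); Hill fit gives EC50, efficacy.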

[3] = molecular target: Glucocorticoid receptor (Homo sapiens) (UniProt P04150); assay: qHTS assay for small molecule antagonists of glucocorticoid receptor signaling (AID 588533; active = well fitted inhibition curve with a large enough effect in the signal ratio, with a control signal flat, not every such curve was filed as active; inconclusive = small, poorly fitted or top-dose-only effect, or effect the other way, or a change in a side signal; the % refers to the signal ratio;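 note: cells stimulated with 2 nM dexamethasone as agonist; potency is the fitted concentration of half-maximal effect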); conditions: HeLa MMTV-bla, GRE beta-lactamase ratio, antagonist mode, 18 h; activity change, negative = inhibition: at 76.8 µM (top of the series)
UniProt P04150, sequence (P04150 whole entry, looked up): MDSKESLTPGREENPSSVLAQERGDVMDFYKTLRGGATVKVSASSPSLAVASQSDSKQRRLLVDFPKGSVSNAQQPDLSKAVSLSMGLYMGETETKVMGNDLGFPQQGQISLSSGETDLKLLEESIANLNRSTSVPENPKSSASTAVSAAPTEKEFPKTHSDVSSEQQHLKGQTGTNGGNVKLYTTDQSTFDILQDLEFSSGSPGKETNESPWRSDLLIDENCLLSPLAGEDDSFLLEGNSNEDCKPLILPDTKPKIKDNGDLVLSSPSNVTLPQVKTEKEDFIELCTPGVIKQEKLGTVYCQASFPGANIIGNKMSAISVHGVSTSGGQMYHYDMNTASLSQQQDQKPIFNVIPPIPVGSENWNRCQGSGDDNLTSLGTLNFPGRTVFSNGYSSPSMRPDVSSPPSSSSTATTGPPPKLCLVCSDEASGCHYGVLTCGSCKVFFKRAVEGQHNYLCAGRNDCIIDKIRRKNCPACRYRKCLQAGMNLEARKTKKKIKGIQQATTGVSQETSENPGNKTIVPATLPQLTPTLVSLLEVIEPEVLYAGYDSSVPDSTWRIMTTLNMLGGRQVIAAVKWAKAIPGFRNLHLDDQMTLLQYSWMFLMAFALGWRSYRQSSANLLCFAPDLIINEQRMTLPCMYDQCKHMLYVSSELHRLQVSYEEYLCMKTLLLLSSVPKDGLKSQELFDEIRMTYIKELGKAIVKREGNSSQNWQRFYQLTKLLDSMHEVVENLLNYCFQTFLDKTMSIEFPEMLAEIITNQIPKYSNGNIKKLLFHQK

[4] = molecular target: Peroxisome proliferator-activated receptor gamma (Homo sapiens) (UniProt P37231); assay: qHTS assay for small molecule agonists of peroxisome proliferator-activated receptor gamma signaling (AID 588536; active = well fitted curve in the direction sought with a large enough effect in the signal ratio, with a control signal flat, not every such curve was filed as active; inconclusive = small, poorly fitted or top-dose-only effect, or effect the other way, or a change in a side signal; inactive = no such curve, though single readings can be large or run the other way; the % refers to the signal ratio; note: potency is the fitted concentration of half-maximal effect;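 for activation: 0% = DMSO basal wells and 100% = rosiglitazone at 2 µM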); conditions: HEK293 PPARg-UAS-bla, beta-lactamase ratio, 16 h; activation: at 76.7 µM (top of the series), percent of rosiglitazone response, DMSO as zero
Method in brief: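 Compound treatment: 16 h, 37 C, HEK293 GeneBLAzer cells. Detection: CCF4, 2 h RT. Values: Hill-fit EC50, efficacy as % of 2 uM rosiglitazone.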

[5] = molecular target: Vitamin D3 receptor (Homo sapiens) (UniProt P11473); assay: qHTS assay for small molecule antagonists of vitamin D receptor signaling (AID 588541); conditions: HEK293T VDR-UAS-bla, beta-lactamase ratio, antagonist mode; activity change, negative = inhibition: at 76.7 µM (top of the series); note: potency is the fitted concentration of half-maximal effect
UniProt P11473, sequence (P11473 whole entry, looked up): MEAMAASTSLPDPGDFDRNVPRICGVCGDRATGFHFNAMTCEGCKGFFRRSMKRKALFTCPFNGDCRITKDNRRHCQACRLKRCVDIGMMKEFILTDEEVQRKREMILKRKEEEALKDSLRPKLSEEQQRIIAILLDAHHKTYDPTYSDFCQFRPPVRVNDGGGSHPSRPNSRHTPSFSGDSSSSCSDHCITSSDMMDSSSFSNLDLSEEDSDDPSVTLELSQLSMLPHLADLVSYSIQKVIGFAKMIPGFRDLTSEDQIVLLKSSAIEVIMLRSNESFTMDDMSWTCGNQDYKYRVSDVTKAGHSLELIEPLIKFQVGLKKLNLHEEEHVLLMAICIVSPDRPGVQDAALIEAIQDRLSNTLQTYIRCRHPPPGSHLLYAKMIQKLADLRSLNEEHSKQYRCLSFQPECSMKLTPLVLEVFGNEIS

[6] = molecular target: Retinoic acid receptor RXR-alpha (Homo sapiens) (UniProt P19793); assay: qHTS assay for small molecule agonists of retinoid X receptor alpha signaling (AID 588544); conditions: HEK293T RXRa-UAS-bla, beta-lactamase reporter, 18 h; activation: at 76.7 µM (top of the series) unless noted; note: potency is the fitted concentration of half-maximal effect;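 for activation: 0% = DMSO basal wells and 100% = reference agonist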
UniProt P19793, sequence (P19793 whole entry, looked up): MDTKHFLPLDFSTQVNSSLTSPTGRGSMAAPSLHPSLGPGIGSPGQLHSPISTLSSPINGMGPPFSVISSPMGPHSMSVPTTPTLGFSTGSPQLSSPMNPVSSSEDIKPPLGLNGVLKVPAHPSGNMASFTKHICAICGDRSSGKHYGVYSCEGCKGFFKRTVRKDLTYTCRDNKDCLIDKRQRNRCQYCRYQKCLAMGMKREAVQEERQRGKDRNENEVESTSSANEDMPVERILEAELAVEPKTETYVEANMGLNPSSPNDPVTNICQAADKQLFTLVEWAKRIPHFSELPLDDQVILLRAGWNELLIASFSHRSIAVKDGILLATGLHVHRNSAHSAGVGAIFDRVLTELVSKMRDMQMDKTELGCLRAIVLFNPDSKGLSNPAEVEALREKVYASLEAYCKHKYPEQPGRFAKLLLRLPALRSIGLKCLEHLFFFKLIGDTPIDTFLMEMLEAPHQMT

[7] = molecular target: Thyroid hormone receptor beta (Homo sapiens) (UniProt P10828); assay: qHTS assay for small molecule agonists of thyroid hormone receptor beta signaling (AID 588545); conditions: TR-UAS-bla GripTite HEK 293, beta-lactamase ratio, agonist mode, 18 h; activation: at 76.7 µM, percent of T3 response, DMSO as zero; note: potency is the fitted concentration of half-maximal effect
UniProt P10828, sequence (P10828 whole entry, looked up): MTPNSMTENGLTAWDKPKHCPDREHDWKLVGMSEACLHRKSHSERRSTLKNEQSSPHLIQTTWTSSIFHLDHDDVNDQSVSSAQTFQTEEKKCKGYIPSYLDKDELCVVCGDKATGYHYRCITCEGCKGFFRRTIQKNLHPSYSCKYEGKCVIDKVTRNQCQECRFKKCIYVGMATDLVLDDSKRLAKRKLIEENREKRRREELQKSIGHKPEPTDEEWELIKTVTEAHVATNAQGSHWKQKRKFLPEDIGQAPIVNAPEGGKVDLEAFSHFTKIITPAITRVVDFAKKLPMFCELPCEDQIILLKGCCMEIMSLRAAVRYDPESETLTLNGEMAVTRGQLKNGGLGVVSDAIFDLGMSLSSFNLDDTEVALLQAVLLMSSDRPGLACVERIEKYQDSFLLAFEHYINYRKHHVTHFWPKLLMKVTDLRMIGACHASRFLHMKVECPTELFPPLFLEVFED
Method in brief: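 Agonist activity was read as beta-lactamase CCF4 fluorescence (405 ex, 460/530 em), scaled between DMSO (0%) and 10 nM T3 (100%), then Hill-fitted for EC50 and efficacy. HEK 293 TR-UAS-bla cells in 2% charcoal/dextran FBS medium were exposed 18 h at 37 C.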

[8] = molecular target: Retinoic acid receptor RXR-alpha (Homo sapiens) (UniProt P19793); assay: qHTS assay for small molecule antagonists of retinoid X receptor alpha signaling (AID 588546; active = well fitted inhibition curve with a large enough effect in the signal ratio, with a control signal flat, not every such curve was filed as active; inconclusive = small, poorly fitted or top-dose-only effect, or effect the other way, or a change in a side signal; inactive = no such curve, though single readings can be large or run the other way; the % refers to the signal ratio;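 note: cells stimulated with 9-cis-retinoic acid as agonist; % is set by controls: 0 for no effect and ±100 for the full control effect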); conditions: HEK293T RXRa-UAS-bla, beta-lactamase ratio, antagonist mode
Method in brief: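 Beta-lactamase reporter inhibition, read as CCF4 fluorescence ratio (ex 405, em 460/530 nm) after 2 h at RT. HEK293T UAS-bla cells, 2500/well, were stimulated with 9-cis-RA at 500 or 100 nM final alongside test compound for 18 h at 37 C.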

[9] = qHTS assay for small molecule agonists of the antioxidant response element (ARE) signaling pathway (AID 651741; active = well fitted activation curve with a large enough effect in the signal ratio; inconclusive = small, poorly fitted or top-dose-only effect, or effect the other way, or a change in a side signal; the % refers to the signal ratio; note: % of control where 0% means no effect); conditions: HepG2 ARE-bla reporter, beta-lactamase FRET ratio, 16 h; activation: at 96 µM (top of the series) unless noted
Method in brief: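 HepG2 ARE-bla reporter cells, 2,000/well; 5 h settle at 37 C/5% CO2; compound pin transfer (23 nL, DMSO); 16 h at 37 C; LiveBLAzer B/G FRET substrate, 2 h RT; fluorescence intensity read.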

[10] = qHTS assay for small molecule activators of the nuclear factor-kappa B (NF-kB) signaling pathway (AID 651749; active = well fitted activation curve with a large enough effect in the signal ratio; inconclusive = small, poorly fitted or top-dose-only effect, or a change in a side signal; the % refers to the signal ratio; note: potency is the fitted concentration of half-maximal effect); conditions: NF-kB-bla ME-180 cells, beta-lactamase FRET ratio, 16 h; activation: hits give high values
Method in brief: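 NF-kB-bla ME-180 cells, 2,000/well; 23 nL compound or DMSO pinned; 16 hr, 37C/5% CO2; beta-lactamase FRET read-out.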

[11] = molecular target: Tumor necrosis factor (Homo sapiens) (UniProt P01375); assay: qHTS assay to identify small molecules that stimulate Tumor Necrosis Factor-alpha (TNF-alpha) secretion (AID 651757; active = well fitted curve in the direction sought with a large enough effect in the signal ratio; inconclusive = small, poorly fitted or top-dose-only effect, or a change in a side signal; inactive = no such curve, though single readings can be large or run the other way; the % refers to the signal ratio; note: 0% is about no effect); conditions: Human cells, HTRF 665/615 ratio; activation (TNF-alpha secretion): at 92.2 µM (top of the series)
UniProt P01375, sequence (P01375 whole entry, looked up): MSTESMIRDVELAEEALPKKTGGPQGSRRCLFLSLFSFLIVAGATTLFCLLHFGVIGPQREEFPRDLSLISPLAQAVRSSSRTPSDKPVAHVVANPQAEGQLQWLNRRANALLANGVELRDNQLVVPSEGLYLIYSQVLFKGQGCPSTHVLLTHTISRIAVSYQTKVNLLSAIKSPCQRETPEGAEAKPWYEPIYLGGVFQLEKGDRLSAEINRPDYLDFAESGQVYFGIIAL
Method in brief: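 THP-1 cells, 3000/well; compound 17 hrs, 37 C; add cryptate/XL665 anti-TNF-alpha antibody pair; 3 hr RT; TR-FRET (HTRF) read of secreted TNF-alpha. Quantitative HTS format.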

[12] = qHTS assay to identify small molecules that stimulate interleukin-8 (IL-8) secretion (AID 651758; active = well fitted activation curve with a large enough effect in the signal ratio; inconclusive = small, poorly fitted or top-dose-only effect, or effect the other way, or a change in a side signal; the % refers to the signal ratio; note: potency is the fitted concentration of half-maximal effect); conditions: HTRF ratio (665/615); activation: at 92.2 µM (top of the series)
Method in brief: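 Compounds are added to THP-1 cells (2000 per well) and left 16 hrs at 37 C. A labeled anti-IL-8 antibody pair is then added, and IL-8 secretion is measured by time-resolved FRET after 1-3 hrs at room temperature.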

[13] = molecular target: Nuclear receptor ROR-gamma (Homo sapiens) (UniProt P51449); assay: qHTS assay for small molecule antagonists of the retinoid-related orphan receptor gamma (ROR-gamma) signaling pathway (AID 651802; active = well fitted curve in the direction sought with a large enough effect; inconclusive = small, poorly fitted or top-dose-only effect, or another doubt; inactive = no such curve, though single readings can be large; an effect the other way counts as inactive or inconclusive; note: potency is the fitted concentration of half-maximal effect; nearly all actives have a fitted effect of over 60% in size)
UniProt P51449, sequence (P51449 whole entry, looked up): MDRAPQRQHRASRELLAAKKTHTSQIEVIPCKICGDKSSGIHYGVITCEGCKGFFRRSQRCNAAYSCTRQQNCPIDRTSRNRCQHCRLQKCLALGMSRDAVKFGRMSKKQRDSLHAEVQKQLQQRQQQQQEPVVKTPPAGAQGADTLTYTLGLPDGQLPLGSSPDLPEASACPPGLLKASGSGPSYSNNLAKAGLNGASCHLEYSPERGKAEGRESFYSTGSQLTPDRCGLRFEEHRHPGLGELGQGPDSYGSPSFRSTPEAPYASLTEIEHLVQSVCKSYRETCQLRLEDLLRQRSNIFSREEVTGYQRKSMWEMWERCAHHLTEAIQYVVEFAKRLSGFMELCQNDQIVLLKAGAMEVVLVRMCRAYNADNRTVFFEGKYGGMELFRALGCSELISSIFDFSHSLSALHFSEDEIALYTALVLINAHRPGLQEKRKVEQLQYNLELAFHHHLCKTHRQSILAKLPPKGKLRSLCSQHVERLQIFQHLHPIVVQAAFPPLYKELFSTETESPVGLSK
Method in brief: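 Luciferase read-out: ONE-Glo luminescence after 30 min at room temperature, following 16hr doxycycline induction at 37C, 5% CO2 of CHO cells with TET-inducible ROR and RORE-LUC reporter; decreased luminescence = reduced reporter activity.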

[14] = qHTS assay for small molecule agonists of the antioxidant response element (ARE) signaling pathway measured by Nrf2-dependant transcriptional activity (AID 720636; active = well fitted curve in the direction sought with a large enough effect in the repeat runs; inconclusive = weak or mixed curves; inactive = no such curve, though single readings can be large; an effect the other way counts as inactive or inconclusive; note: potency is the fitted concentration of half-maximal effect)
Method in brief: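 Nrf2-dependent transcription read as ONE-Glo luciferase signal from ARE-luc HepG2 reporter cells after 16 hr compound treatment at 37 C, 5% CO2, in assay medium with 1% dialyzed FBS.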

[15] = qHTS assay for small molecule antagonists of the retinoid-related orphan receptor gamma (ROR-gamma) signaling pathway - cell viability counter screen (AID 720652; active = well fitted curve in the direction sought with a large enough effect in the repeat runs; inconclusive = weak or mixed curves; inactive = no such curve, though single readings can be large; an effect the other way counts as inactive or inconclusive;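 note: potency is the fitted concentration of half-maximal effect; compound exposure lasted 16 hr before ATP read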)
Method in brief: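 CHO RORE-LUC/TET-ROR line, 1,000 cells/well, 37 C 5% CO2 5 hr; cpd or DMSO + doxycycline induction, 16 hr. CellTiter-Glo, 30 min RT, luminescence = ATP content.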

[16] = qHTS assay for cell viability of HEK293 cells (AID 743288; active = well fitted curve in the direction sought with a large enough effect; inconclusive = small, poorly fitted or top-dose-only effect, or another doubt; inactive = no such curve, though single readings can be large; an effect the other way counts as inactive or inconclusive; note: potency is the fitted concentration of half-maximal effect; nearly all actives have a fitted effect of over 50% in size); conditions: ATP luminescence (CellTiter-Glo), 18 h; max response: hits give low values
Method in brief: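 After 18 h compound exposure at 37 C, parental HEK293 cells (2,000/well) are lysed with CellTiter-Glo and luminescence is read following 30 min at room temperature.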

[17] = qHTS assay for cell viability of the p53RE-bla HCT-116 cell line (AID 743292; active = well fitted curve in the direction sought with a large enough effect; inconclusive = small, poorly fitted or top-dose-only effect, or another doubt; inactive = no such curve, though single readings can be large; an effect the other way counts as inactive or inconclusive; note: potency is the fitted concentration of half-maximal effect; nearly all actives have a fitted effect of over 55% in size)
Method in brief: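 ATP-based luminescent viability (CellTiter-Glo, 30 min RT) after 16 h compound treatment at 37 C of p53RE-bla HCT-116 cells, seeded at 4,000 cells/well and rested 5 h before dosing.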
Tags give direction and shape of the fitted curve or compound fluorescence and quenching.

CC(=O)Nc1ccc(C(=O)CCl)cc1
inconclusive: Potency [1] 44.7 µM [side channel, rising, single point] | activity change, negative = inhibition [1] -43% | activation [2] 17% | Potency [4] 44.7 µM [fluorescent, side channel, single point] | activation [4] -36.7% | Potency [6] 0.631 µM [side channel, rising, full curve, poor fit] | activation [6] -67% | Potency [7] 44.7 µM [side channel, rising, partial curve, poor fit] | activation [7] 51.3% | max response [8] -68.2% and -76.3% | activation [9] -28.2% and -50.3% | Potency [10] 20 µM [side channel, falling, partial curve, poor fit] | activation (TNF-alpha secretion) [11] 0.0095% | Potency [12] 66.8 µM [inhibitor, single point] | Potency [14] 66.8 µM [activator, single point] and 24.3 µM [activator, full curve, poor fit] | Potency [17] 31.6 µM [cytotoxic, single point]
active: Potency [3] 39.8 µM | Potency [5] 25.1 µM | Potency [13] 9.44 µM | Potency [15] 18.8 µM | Potency [16] 22.4 µM and 25.1 µM

Source: PubChem BioAssay (NCATS)
